Assay results reported in paper PMC4336329 (PLoS ONE, 2015).
Among all 310,000 compounds or so, about 2,200 (0.71%) showed an effect of 50% or more. Effects have a minus sign here. This is one part of the list. *1 amine or outer side, *2 acyl side, *3 side chain or, on linkers, in order; H or OH if unused. Where a SMILES comes first, the peptide text is derived from it. Bridges are numbered along the chain shown (N, C = ends). [ ]: non-standard residue; d: D form. ξ: configuration not given here. hSer(Ph(2-I,4-NO2,6-CO)) = O=C([C@H](CCOc1c(I)cc([N+](=O)[O-])cc1C(=O)[*:3])N[*:1])[*:2]; ξD = NC(CC(=O)O)C(=O)O

target: human ether-à-go-go-related gene (hERG) potassium channel (human, UniProt Q12809); experiment: primary screen, population patch clamp on CHO cells stably expressing hERG
Sequence (Q12809 whole entry, looked up): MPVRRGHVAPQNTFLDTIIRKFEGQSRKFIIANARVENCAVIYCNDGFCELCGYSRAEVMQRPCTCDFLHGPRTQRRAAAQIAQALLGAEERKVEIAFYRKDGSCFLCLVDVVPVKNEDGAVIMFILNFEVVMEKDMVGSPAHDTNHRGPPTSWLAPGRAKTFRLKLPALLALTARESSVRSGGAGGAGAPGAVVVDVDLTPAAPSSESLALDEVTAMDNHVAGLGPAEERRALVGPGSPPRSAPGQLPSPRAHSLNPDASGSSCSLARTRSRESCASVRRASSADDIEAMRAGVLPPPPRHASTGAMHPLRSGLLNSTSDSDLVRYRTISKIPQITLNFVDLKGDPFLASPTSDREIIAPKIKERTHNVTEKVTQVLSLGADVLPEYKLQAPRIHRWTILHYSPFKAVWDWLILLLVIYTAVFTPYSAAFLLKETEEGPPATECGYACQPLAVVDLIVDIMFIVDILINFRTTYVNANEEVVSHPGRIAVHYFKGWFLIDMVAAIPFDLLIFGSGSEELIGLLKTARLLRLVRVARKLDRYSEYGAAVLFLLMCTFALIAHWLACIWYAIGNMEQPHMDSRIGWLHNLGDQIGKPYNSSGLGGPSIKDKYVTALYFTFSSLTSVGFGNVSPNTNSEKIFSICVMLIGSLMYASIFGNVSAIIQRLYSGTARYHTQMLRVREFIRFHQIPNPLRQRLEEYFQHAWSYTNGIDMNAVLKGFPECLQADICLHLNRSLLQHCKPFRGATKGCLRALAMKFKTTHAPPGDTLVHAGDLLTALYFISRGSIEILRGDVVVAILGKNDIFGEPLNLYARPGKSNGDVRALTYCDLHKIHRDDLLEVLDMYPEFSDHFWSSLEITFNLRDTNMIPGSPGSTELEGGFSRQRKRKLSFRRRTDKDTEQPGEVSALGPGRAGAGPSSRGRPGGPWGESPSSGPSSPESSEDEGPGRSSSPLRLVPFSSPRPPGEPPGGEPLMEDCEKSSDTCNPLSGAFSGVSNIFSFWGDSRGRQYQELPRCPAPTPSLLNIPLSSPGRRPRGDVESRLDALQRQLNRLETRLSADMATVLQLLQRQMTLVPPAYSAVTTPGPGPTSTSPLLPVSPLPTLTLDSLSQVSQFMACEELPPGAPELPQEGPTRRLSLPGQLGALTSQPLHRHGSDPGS

| SMILES | hERG current change (%, negative = inhibition) at 1uM |
| --- | --- |
| O=S(=O)(NCC1CCN(S(=O)(=O)c2ccccc2)CC1)c1ccccc1 | 9.17% |
| COc1ccc(C2=NN(C(N)=S)C(c3ccccc3)C2)cc1 (stereo not drawn) | 6.97% |
| Cc1ccccc1OCC(=O)N/N=C/c1ccc(Sc2nc3ccccc3s2)o1 | 7.91% |
| CCc1nc2oc3ccccc3c(=O)c2c(=O)n1-c1ccccc1 | -0.853% |
| COc1ccc(CCn2c(=N)c(C(=O)N3CCN(C)CC3)cc3c(=O)n4ccccc4nc32)cc1 | -2.76% |
| Cc1ccc(S(=O)(=O)N2CCN(C(=O)COC(=O)c3c(C)cc(C)cc3C)CC2)c(C)c1 | 10.8% |
| COc1ccc(C(=O)/C=C2/C(=O)Nc3ccccc32)cc1 | 10.6% |
| COc1ccccc1NC(=O)Cn1cc(C(=O)C(=O)N2CCOCC2)c2ccccc21 | 19.5% |
| CCSc1nnc(NC(=O)C2CC(=O)N(Cc3ccccc3)C2)s1 (stereo not drawn) | 10.1% |
| CSCCC1NC(=O)N(CC(=O)N2N=C(c3ccc(Cl)cc3)CC2c2ccco2)C1=O (stereo not drawn) | 2.77% |
| COC(CNC(=O)C1CC(=O)N(CCc2ccccc2)C1)OC (stereo not drawn) | -1.21% |
| COC(=O)N1C(=O)[C@](c2ccccc2)(C2CCCC2)N1C(=O)OC | 19.3% |
| CN(Cc1cnn(C)c1)C(=O)CC1C(=O)NCCN1Cc1cccc(Oc2ccccc2)c1 (stereo not drawn) | 15.6% |
| COC(=O)Cc1ccc(NC(=O)C(c2ccccc2)c2ccccc2)cc1 | 17.3% |
| CCOC(=O)c1nnn(-c2nonc2N)c1-c1ccc(Cl)cc1 | 10.3% |
| CCC(C)NC(=O)c1c(N)n(CCCOC)c2nc3ccccc3nc12 (stereo not drawn) | 12% |
| O=C(CCC(=O)N1CCN(S(=O)(=O)c2ccc(Cl)cc2)CC1)Nc1ccc2ccccc2c1 | 13.4% |
| Cc1ccc2nc3c(cc2c1)c(NC(=O)c1ccco1)nn3CC(C)C | 16.2% |
| CC1CCCCC1NC(=O)CSc1nnc(CN2CCOCC2)n1C (stereo not drawn) | -0.94% |
| CC(C)(c1ccccc1)c1ccc(OCCCN2CCNCC2)cc1.O=C(O)C(=O)O | 8.83% |
| CCN(CC)S(=O)(=O)c1ccc(-c2nnc(SCC(=O)Nc3nc(C)cs3)o2)cc1 | 5.51% |
| Cc1nc(SC(C)C(=O)c2c(N)n(C)c(=O)n(C)c2=O)c2c(C)c(C)sc2n1 (stereo not drawn) | 14.3% |

| SMILES | hERG current change (%, negative = inhibition) at 1uM |
| --- | --- |
| Cc1ccc2nsnc2c1NC(=O)c1cncc(Br)c1 | 7.5% |
| Cc1nnn(C23C[C@@H]4C[C@@H](CC(C(=O)N5CCN(c6ccccc6)CC5)(C4)C2)C3)n1 | 3.57% |
| CC1CCN(C(=O)c2cccc(S(=O)(=O)N3CCCCC3)c2)CC1 | 2.17% |
| Cc1ccc(N2C(=O)C3C(c4ccccc4)(C2=O)C3(c2ccccc2)c2ccccc2)cc1 (stereo not drawn) | 22.7% |
| COc1ccc(Br)cc1/C=N/N1CCN(Cc2ccccc2Cl)CC1 | 20.8% |
| Cc1ccc(S(=O)(=O)NCC(=O)N(CC2CCCO2)C(C(=O)NC2CCCCC2)C(C)C)cc1 (stereo not drawn) | -10.2% |
| Cc1ccc(C(=O)NNC(=O)C2CCN(c3ncccn3)CC2)cc1 | 9.28% |
| C[C@@H]1NC(=O)[C@H](CCCN=C(N)N)NC(=O)c2cc([N+](=O)[O-])cc(I)c2OCC[C@@H](C(=O)NC(CC(=O)O)C(N)=O)NC1=O (stereo partly drawn) (RA[hSer(Ph(2-I,4-NO2,6-CO))][ξD]-NH2; lactam N-3) | 16.3% |
| C/C(=N\NC(=O)c1nnn(-c2nonc2N)c1CN(C)c1ccccc1)c1cccs1 | 19.6% |
| Cc1ccc(CN2C3=NCCN3c3ccccc32)cc1.Cl | -23.5% |
| Cc1cc(F)ccc1NC(=O)CCc1ccc(S(=O)(=O)N2CCOCC2)cc1 | -12.6% |
| O=C(NNC(=S)Nc1ccccc1)c1cccc(S(=O)(=O)N2CCOCC2)c1 | 12.2% |
| CCOC(=O)c1c(S(=O)(=O)N2CCC(C)CC2)c(C)n(C)c1C | -3.38% |
| Cc1nn(-c2ccccc2)c(C)c1/C=N/NC(=O)c1cnccn1 | 7.89% |
| Cc1c(Cl)cccc1NC(=S)NC1CCN(Cc2ccccc2)CC1 | 2.28% |
| O=C1c2ccccc2C(=O)N1CCN1CCc2ccccc21 | 5.53% |
| CC1(C)CC(=O)C=C(c2ccc(I)cc2)C1 | 15.7% |
| COc1ccc(O)c(C(=O)CC(=O)c2ccccc2)c1 | 11.1% |
| CC(C(=O)NC(=O)NCc1ccccc1)N1C(=O)c2ccccc2C1=O (stereo not drawn) | 5.47% |
| Cc1ccc(C2CCN(C(=O)Nc3ccc(F)cc3)C2)cc1 (stereo not drawn) | 3.03% |
| O=C(CNC(=O)c1cccs1)NCC(=O)OCC(=O)c1ccccc1 | 10.1% |
| CC(C)c1[nH]nc2c1C(C1C=CCCC1)C(C#N)=C(N)O2 (stereo not drawn) | 11.2% |

| SMILES | hERG current change (%, negative = inhibition) at 1uM |
| --- | --- |
| CC(=O)Cn1c(C(F)(F)F)nc2ccccc21 | 8.13% |
| Cc1cc(OC(C)C(=O)NCc2ccncc2)c2c3c(c(=O)oc2c1)CCCC3 (stereo not drawn) | -12.2% |
| CCOC(=O)c1cc2cc(OC)ccc2nc1C | -1.65% |
| COc1ccc(NC(=O)c2[nH]c(C)c(C(C)=O)c2C)cc1S(=O)(=O)Nc1ccc(Br)cc1 | 0.916% |
| NC(=O)C[n+]1cccc(/C=N/O)c1.[Cl-] | 8.02% |
| CCCCNC(=O)c1ccc2c(OCC)n(CCCC)nc2c1 | 6.22% |
| N/C(=N\OC(=O)c1ccco1)c1cccnc1 | 19.9% |
| Cc1cccc(C(=O)Nc2nnc(-c3ccc(C(C)(C)C)cc3)s2)c1 | -1.4% |
| COc1ccc(CNC(=O)COC(=O)Cc2ccc(Cl)cc2Cl)cc1 | 13.4% |
| Cc1nn(C)cc1S(=O)(=O)N1CCN(c2ccccc2F)CC1 | 7.67% |
| Cc1cccc(CN2CCC(CNC(=O)CCNC(=O)Cn3ccc4ccccc4c3=O)CC2)c1 | 5.41% |
| CC(=O)Nc1ccccc1N(C)S(=O)(=O)c1ccc(C)cc1 | 7.44% |
| O=C(OCn1nnc2ccccc2c1=O)C1=COCCO1 | 11% |
| Cc1ccc(S(=O)(=O)NCCC(=O)OCC(=O)NCCc2ccccc2)cc1C | 4.85% |
| N#C/C(=C\c1cn(CC(=O)N2CCCCC2)c2ccccc12)C(=O)NCc1ccc2c(c1)OCO2 | 1.35% |
| COc1ccc(CCNS(=O)(=O)c2ccc3c(c2)NC(=O)C(C)S3)cc1OC (stereo not drawn) | 17.7% |
| Cc1nc(SC(C)C(=O)NC2CCCCC2C)c2c(C)c(C)sc2n1 (stereo not drawn) | 11.1% |
| Cc1cccc(CSC2=NCCN2C(=O)C2CC2)c1 | 5.91% |
| Cc1cc(=O)oc2c(C)c(OCC(=O)NC3CC(C)(C)NC(C)(C)C3)ccc12 | -2.11% |
| O=C(CSc1ccc(-c2ccccn2)nn1)N1CCCc2ccccc21 | 9.54% |
| Cc1cc(C)cc(NC(=O)N2CCCCCCC2)c1 | 10.4% |
| CCOC(=O)c1ccc(-c2c(-c3ccc4c(c3)OCO4)noc2C)cc1F | 12.4% |

| SMILES | hERG current change (%, negative = inhibition) at 1uM |
| --- | --- |
| CCc1nnc(NC(=O)c2ccc(Br)o2)s1 | 14.8% |
| CCOc1ccc(-c2nnn(CC(=O)N3CCCC3)n2)cc1OCC | 13.6% |
| COc1ccc(N2CCOCC2)c(NC(=O)COc2cccc(C)c2C)c1 | 7.18% |
| COc1cccc2cc(/C(C)=N/NC(=O)c3ccco3)oc12 | 9.53% |
| COc1cc2cc(CCCOC(=O)CCCC(=O)O)oc(=O)c2cc1OC | 10.6% |
| CC1=CC(=O)CC2C1(C)CCC(C)C2(C)CCC(C)CC(=O)O (stereo not drawn) | 12.7% |
| CCN(CC)C(=O)COc1ccc2c(-c3ccccc3)cc(=O)oc2c1 | 12.9% |
| O=C(c1ccco1)N(Cc1cccc(Cl)c1)C1CCS(=O)(=O)C1 (stereo not drawn) | -29.3% |
| COC(=O)c1sc2ncn(CC(=O)NCCc3ccc(OC)c(OC)c3)c(=O)c2c1C | 8.82% |
| Cc1ccc(N=C(c2cccs2)N2CCOCC2)cc1 | 10.5% |
| CN1CCN(C2OC(=O)c3ccccc32)CC1 (stereo not drawn) | -7.97% |
| CC(=O)Nc1ccc(S(=O)(=O)NC(C(=O)O)C(C)O)cc1 (stereo not drawn) | 7.99% |
| CN(C)c1ccc(NS(=O)(=O)c2cc(Cl)ccc2Cl)cc1 | 13.3% |
| O=C(CNC(=O)c1ccc(S(=O)(=O)N2CCCC2)cc1)N/N=C/c1ccco1 | 10.9% |
| CSc1nnc2ccc(-c3ccc(C)cc3)nn12 | 3.76% |
| O=C(CCCCCn1c(=S)[nH]c2ccc(N3CCOCC3)cc2c1=O)NCc1cccc(Cl)c1 | 6.17% |
| CCOC(=O)C(=O)Nc1ccc2c(c1)OCO2 | 5.63% |
| O=C(/C=C/c1ccccc1)NC1CC2CCCC(C1)N2Cc1ccccc1 (stereo not drawn) | -46.4% |
| O=c1c2ccccc2c(-c2ccccc2)nn1-c1ccccn1 | 8.68% |
| CC(=O)c1cc(CN2CCN(Cc3ccccc3)C(CCO)C2)cs1 (stereo not drawn) | 6.67% |
| COC(=O)NCC(c1cccnc1)N1CCN(c2ccccc2)CC1 (stereo not drawn) | 2.56% |
